These results are taken from US20220249416A1, “SYNERGISTIC COMBINATIONS OF SYNTHETIC LYSINE ANALOGS, DERIVATIVES, MIMETICS, OR PRODRUGS AND PHARMACEUTICAL AGENTS FOR ENHANCED EFFICACY” (priority 2019, published 2022).

For this experiment, the system named is HSV-1 Strain 17+. Briefly: Effect of 2% tranexamic acid on HSV transcription (RT-qPCR) in rabbit skin cells. The class given is cell-based, Herpes Simplex Virus Type 1. On the technique in general: Real-time PCR tracks product formation cycle by cycle.

SMILES strings stand for the structures.

Consider `NC[C@H]1CC[C@H](C(=O)O)CC1` [tranexamic acid], for which, where the note is “MOI 0.5 and 0.05”, the “early gene transcription (ICP8, thymidine kinase)” value is listed as “does not cause a significant decrease”. Moreover, the “reduction of late gene expression (gC, VP16)” value (both high and low MOI) is on record as “up to 8 fold”.
